# Assay results from the supplement of paper PMC8728848.
# This is one part of the list.
# B1: PX9961T-pdi-555-33-555 (Parabacteroides distasonis) (protein)
# chain: FDEETAFQSPTLVYVNTVASLYNNMFKIMGNDRHVYDLNTFSSDEAMLPCRIGDWEDGGLWQNIFLHRWGTMNDLTKNSWDFLYEQIGKCNQSVDKLQAFAEEQPDVEYFKVYLEEVRAVRAFFYYELLDLFARVPLVTSSTTPMSEVKQSERSVVFNFVRSELEEALPYLSDNRSNQKGEYYGRITKPVAYMILAKLALNAEVYADDNWTDGNRPAGKNIKFTVDGKEMNAWEATIAYVDKLEALGYKLQGNFSENFAVANETSVENIFTVPMDPVAYPDAKDYNLVRTRHYDHATAYGQSGWNGSCATVKAMNVFKFGTADEDPRCKLTYFTGEVTGPDGKTIYTEWDGQKVPLKYEPNAPKVYMDASDGLLVKTAGARMAKYEFDQNAQDGGNLHGNDCVIFRFADALLMKAEAKIRLGQNGDDEVNQVRNRVGAKPLQNVTLDTLLDERMLELAWEGVRRQDLIRFGKFTEATVDRYVGVKHFASSLDYQEDKTGYTTVFSIYADILSLNPNLTQNPGY
# Tests used:
# Assay in all cases: glycan array binding signal (z-score within array); higher = stronger binding
# Details in all cases: glycan notation: IUPAC condensed, linker removed
# [1] = target: Gal(b1-4)Glc
# Procedure, shortened: (§1)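 Glycan array data were curated from 3228 arrays in the Consortium for Functional Glycomics database and kept only where the protein sequence was available. Glycan names were converted to IUPAC-condensed notation, and columns mapping to the same glycan were averaged. The binding signal is a within-array Z-score, averaged across arrays of the same protein sequence at different concentrations or buffers and across linkers. Negative Z-scores can be read as non-binding.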
# [2] = target: Gal(b1-4)Glc6S
# Procedure, shortened: as §1
# [3] = target: Gal(b1-4)GlcNAc
# Procedure, shortened: as §1
# [4] = target: Gal(b1-4)GlcNAc(a1-6)Gal(b1-4)GlcNAc
# Procedure, shortened: as §1
# [5] = target: Gal(b1-4)GlcNAc(b1-2)Man
# Procedure, shortened: as §1
# [6] = target: Gal(b1-4)GlcNAc(b1-2)Man(a1-3)Man(b1-4)GlcNAc(b1-4)GlcNAc
# Procedure, shortened: as §1
# [7] = target: Gal(b1-4)GlcNAc(b1-2)Man(a1-3)[Gal(b1-4)GlcNAc(b1-2)Man(a1-6)]Man(b1-4)GlcNAc(b1-4)GlcNAc
# Procedure, shortened: as §1
# [8] = target: Gal(b1-4)GlcNAc(b1-2)Man(a1-3)[Gal(b1-4)GlcNAc(b1-2)Man(a1-6)]Man(b1-4)GlcNAc(b1-4)[Fuc(a1-6)]GlcNAc
# Procedure, shortened: as §1
# [9] = target: Gal(b1-4)GlcNAc(b1-2)Man(a1-3)[Gal(b1-4)GlcNAc(b1-2)Man(a1-6)][Gal(b1-4)GlcNAc(b1-4)]Man(b1-4)GlcNAc(b1-4)[Fuc(a1-6)]GlcNAc
# Procedure, shortened: as §1
# [10] = target: Gal(b1-4)GlcNAc(b1-2)Man(a1-3)[Gal(b1-4)GlcNAc(b1-2)Man(a1-6)][GlcNAc(b1-4)]Man(b1-4)GlcNAc(b1-4)[Fuc(a1-6)]GlcNAc
# Procedure, shortened: as §1
# [11] = target: Gal(b1-4)GlcNAc(b1-2)Man(a1-3)[GlcNAc(b1-2)Man(a1-6)]Man(b1-4)GlcNAc(b1-4)GlcNAc
# Procedure, shortened: as §1
# [12] = target: Gal(b1-4)GlcNAc(b1-2)Man(a1-3)[GlcNAc(b1-4)][Gal(b1-4)GlcNAc(b1-2)Man(a1-6)]Man(b1-4)GlcNAc(b1-4)GlcNAc
# Procedure, shortened: as §1
# [13] = target: Gal(b1-4)GlcNAc(b1-2)Man(a1-3)[Man(a1-6)]Man(b1-4)GlcNAc(b1-4)GlcNAc
# Procedure, shortened: as §1
# [14] = target: Gal(b1-4)GlcNAc(b1-2)Man(a1-6)Man(b1-4)GlcNAc(b1-4)GlcNAc
# Procedure, shortened: as §1
# [15] = target: Gal(b1-4)GlcNAc(b1-2)Man(a1-6)[GlcNAc(b1-2)Man(a1-3)]Man(b1-4)GlcNAc(b1-4)GlcNAc
# Procedure, shortened: as §1
# [16] = target: Gal(b1-4)GlcNAc(b1-2)Man(a1-6)[Man(a1-3)]Man(b1-4)GlcNAc(b1-4)GlcNAc
# Procedure, shortened: as §1
# [17] = target: Gal(b1-4)GlcNAc(b1-2)[Gal(b1-4)GlcNAc(b1-4)]Man(a1-3)[Gal(b1-4)GlcNAc(b1-2)Man(a1-6)]Man(b1-4)GlcNAc(b1-4)GlcNAc
# Procedure, shortened: as §1
# [18] = target: Gal(b1-4)GlcNAc(b1-2)[Gal(b1-4)GlcNAc(b1-4)]Man(a1-3)[Gal(b1-4)GlcNAc(b1-2)[Gal(b1-4)GlcNAc(b1-6)]Man(a1-6)]Man(b1-4)GlcNAc(b1-4)GlcNAc
# Procedure, shortened: as §1
# [19] = target: Gal(b1-4)GlcNAc(b1-2)[Gal(b1-4)GlcNAc(b1-4)]Man(a1-3)[GlcNAc(b1-4)][Gal(b1-4)GlcNAc(b1-2)Man(a1-6)]Man(b1-4)GlcNAc(b1-4)GlcNAc
# Procedure, shortened: as §1
# [20] = target: Gal(b1-4)GlcNAc(b1-2)[Gal(b1-4)GlcNAc(b1-4)]Man(a1-3)[GlcNAc(b1-4)][Gal(b1-4)GlcNAc(b1-2)[Gal(b1-4)GlcNAc(b1-6)]Man(a1-6)]Man(b1-4)GlcNAc(b1-4)GlcNAc
# Procedure, shortened: as §1
# [21] = target: Gal(b1-4)GlcNAc(b1-2)[Gal(b1-4)GlcNAc(b1-6)]Man(a1-6)[Gal(b1-4)GlcNAc(b1-2)Man(a1-3)]Man(b1-4)GlcNAc(b1-4)GlcNAc
# Procedure, shortened: as §1
# [22] = target: Gal(b1-4)GlcNAc(b1-2)[Gal(b1-4)GlcNAc(b1-6)]Man(a1-6)[Gal(b1-4)GlcNAc(b1-2)Man(a1-3)]Man(b1-4)GlcNAc(b1-4)[Fuc(a1-6)]GlcNAc
# Procedure, shortened: as §1
binder,measurement,setting,value
B1,glycan array binding signal (z-score),[1],-0.268
same,glycan array binding signal (z-score),[2],-0.444
same,glycan array binding signal (z-score),[3],-0.332
same,glycan array binding signal (z-score),[4],-0.188
same,glycan array binding signal (z-score),[5],-0.096
same,glycan array binding signal (z-score),[6],-0.441
same,glycan array binding signal (z-score),[7],0.254
same,glycan array binding signal (z-score),[8],0.171
same,glycan array binding signal (z-score),[9],-0.228
same,glycan array binding signal (z-score),[10],0.434
same,glycan array binding signal (z-score),[11],0.627
same,glycan array binding signal (z-score),[12],1.19
same,glycan array binding signal (z-score),[13],0.642
same,glycan array binding signal (z-score),[14],0.047
same,glycan array binding signal (z-score),[15],-0.306
same,glycan array binding signal (z-score),[16],-0.664
same,glycan array binding signal (z-score),[17],-0.487
same,glycan array binding signal (z-score),[18],-0.253
same,glycan array binding signal (z-score),[19],0.304
same,glycan array binding signal (z-score),[20],0.013
same,glycan array binding signal (z-score),[21],-0.161
same,glycan array binding signal (z-score),[22],0.789
